Assay [1] deals with T1, GST-Co-NF-kB (UniProt F1ARL5).
T1 sequence: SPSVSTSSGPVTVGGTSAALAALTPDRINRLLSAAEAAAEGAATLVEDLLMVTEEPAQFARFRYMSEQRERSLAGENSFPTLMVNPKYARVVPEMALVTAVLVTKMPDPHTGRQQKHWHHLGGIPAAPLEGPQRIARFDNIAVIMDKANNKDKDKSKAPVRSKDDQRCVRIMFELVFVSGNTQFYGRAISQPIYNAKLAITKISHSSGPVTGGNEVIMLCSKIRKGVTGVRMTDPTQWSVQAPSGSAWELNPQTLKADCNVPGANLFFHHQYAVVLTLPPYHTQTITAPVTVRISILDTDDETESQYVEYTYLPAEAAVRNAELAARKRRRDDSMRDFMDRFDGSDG
Nature of the assay: protein-binding microarray (PBM). The conditions noted are these: PBM: ~300 nM protein, 6 mM HEPES pH 7.8, 80 mM KCl, 0.5 mM EDTA, 0.5 mM EGTA, 6% glycerol, 35 ng/ul poly-dIdC, 1% milk, 1 h, room temperature; high values mean tight binding; double strand, one strand shown.

The target of assay [2] is T2, GST-Dm-Relish (UniProt Q94527).
T2 sequence: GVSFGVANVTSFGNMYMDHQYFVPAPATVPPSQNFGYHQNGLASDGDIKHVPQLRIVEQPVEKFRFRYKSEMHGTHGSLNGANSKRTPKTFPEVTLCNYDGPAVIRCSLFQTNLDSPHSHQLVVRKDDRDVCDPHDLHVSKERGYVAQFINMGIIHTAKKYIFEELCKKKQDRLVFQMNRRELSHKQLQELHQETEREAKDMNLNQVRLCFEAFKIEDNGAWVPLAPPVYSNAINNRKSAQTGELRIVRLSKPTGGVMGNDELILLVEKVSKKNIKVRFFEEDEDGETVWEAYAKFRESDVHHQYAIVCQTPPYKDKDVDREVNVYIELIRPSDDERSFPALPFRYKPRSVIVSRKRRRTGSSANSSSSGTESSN
As to the kind of experiment: protein-binding microarray (PBM). The settings on record: PBM: ~300 nM protein, 6 mM HEPES pH 7.8, 80 mM KCl, 0.5 mM EDTA, 0.5 mM EGTA, 6% glycerol, 35 ng/ul poly-dIdC, 1% milk, 1 h, room temperature; Ap Aiptasia and Nv Nematostella (sea anemones) / Co Capsaspora / Aq Amphimedon (sponge) / Dm Drosophila / Hu human; RHD is the Rel homology domain; high values mean tight binding; most listed sequences are background and not binding sites; double strand, one strand shown.

This is a selection; strong and weak results do not stand in their true shares. The list includes weakly bound sequences.

For “CCGATTAACATCAGGGGCGGGAATGATGTTAATCGGGTCTTGATTCGCTTGACGCTGCTG”, the binding signal came out at 3.85 z-score in assay [1] and 2.49 z-score in assay [2].

Consider “CCGATTAACATCAGGGGATTCCATGATGTTAATCGGGTCTTGATTCGCTTGACGCTGCTG”, for which the binding signal in assay [1] is 3.19 z-score; in assay [2] it was 10 z-score.

Consider “CCGATTAACATCAGGCATCCCCATGATGTTAATCGGGTCTTGATTCGCTTGACGCTGCTG”, for which the binding signal in assay [1] turned out to be 1.82 z-score; in assay [2], 3.01 z-score.

Regarding “CCGATTAACATCAGACGTGGGAATGATGTTAATCGGGTCTTGATTCGCTTGACGCTGCTG”, the binding signal in assay [1] worked out at 2.5 z-score; in assay [2], 0.928 z-score.

Turning to “CCGATTAACATCAACAATTCCCCTGATGTTAATCGGGTCTTGATTCGCTTGACGCTGCTG”, the binding signal in assay [1] stood at 7.14 z-score; in assay [2] it was 5.11 z-score.

Take “CCGATTAACATCAGGAATTGCCCTGATGTTAATCGGGTCTTGATTCGCTTGACGCTGCTG”: the binding signal in assay [1] amounted to 0.51 z-score; in assay [2] it was 0.953 z-score.

Consider “CCGATTAACATCACGGGGCCCCCTGATGTTAATCGGGTCTTGATTCGCTTGACGCTGCTG”, for which the binding signal in assay [1] is 1.49 z-score; in assay [2], 3.89 z-score.

Regarding “CCGATTAACATCAGGGAAGGACCTGATGTTAATCGGGTCTTGATTCGCTTGACGCTGCTG”, the figures for the binding signal in assay [1] and in assay [2] were 0.763 z-score and 4.44 z-score, respectively.

Consider “CCGATTAACATCAATATTTCCCATGATGTTAATCGGGTCTTGATTCGCTTGACGCTGCTG”, for which the binding signal in assay [1] came to 5.1 z-score; in assay [2], 1.61 z-score.

For “CCGATTAACATCAGGGTAAGTACTGATGTTAATCGGGTCTTGATTCGCTTGACGCTGCTG”, the binding signal in assay [1] came out at 1.85 z-score; in assay [2], 7.08 z-score.

On to “CCGATTAACATCAGATGGGAAAATGATGTTAATCGGGTCTTGATTCGCTTGACGCTGCTG”, for which the binding signal in assay [1] was 2.47 z-score; in assay [2], 0.61 z-score.

For “CCGATTAACATCAAAATCCCCCGTGATGTTAATCGGGTCTTGATTCGCTTGACGCTGCTG”, the results for the binding signal in assay [1] and in assay [2] were 8.56 z-score and 9.89 z-score, respectively.

With “CCGATTAACATCAGGGATTTCTATGATGTTAATCGGGTCTTGATTCGCTTGACGCTGCTG”, the binding signal in assay [1] came out at 1.22 z-score; in assay [2], 5.1 z-score.

In the case of “CCGATTAACATCACGCAAATCCCTGATGTTAATCGGGTCTTGATTCGCTTGACGCTGCTG”, the binding signal in assay [1] is 0.775 z-score; in assay [2], 1.24 z-score.

With “CCGATTAACATCAGGGAAATACATGATGTTAATCGGGTCTTGATTCGCTTGACGCTGCTG”, the binding signal in assay [1] was 4.08 z-score; in assay [2], 8.18 z-score.

Regarding “CCGATTAACATCAGGGGATATTATGATGTTAATCGGGTCTTGATTCGCTTGACGCTGCTG”, the values for the binding signal in assay [1] and in assay [2] were 4.65 z-score and 6.28 z-score, respectively.

Regarding “CCGATTAACATCAGGGTACTACCTGATGTTAATCGGGTCTTGATTCGCTTGACGCTGCTG”, the binding signal was 0.683 z-score in assay [1] and 1.62 z-score in assay [2].

As to “CCGATTAACATCACGGGGGAAACTGATGTTAATCGGGTCTTGATTCGCTTGACGCTGCTG”, the values for the binding signal in assay [1] and in assay [2] were 12.2 z-score and 3.91 z-score, respectively.

Take “CCGATTAACATCAGGGGGGTGCATGATGTTAATCGGGTCTTGATTCGCTTGACGCTGCTG”: the binding signal was found to be 3.47 z-score in assay [1] and 4.16 z-score in assay [2].

For “CCGATTAACATCAACGGTGGGAATGATGTTAATCGGGTCTTGATTCGCTTGACGCTGCTG”, the binding signal in assay [1] came out at 2.19 z-score; in assay [2], 0.686 z-score.

For the sequence “CCGATTAACATCAGAAAAAACCCTGATGTTAATCGGGTCTTGATTCGCTTGACGCTGCTG”, the binding signal stood at 0.846 z-score in assay [1] and 6.15 z-score in assay [2].

Turning to “CCGATTAACATCAGGGGGGGAGATGATGTTAATCGGGTCTTGATTCGCTTGACGCTGCTG”, the values for the binding signal in assay [1] and in assay [2] were 8.63 z-score and 3.66 z-score, respectively.

Turning to “CCGATTAACATCAACTTTTTCCCTGATGTTAATCGGGTCTTGATTCGCTTGACGCTGCTG”, the results for the binding signal in assay [1] and in assay [2] were 5.52 z-score and 0.821 z-score, respectively.

For the sequence “CCGATTAACATCAGGGATTCCCATGATGTTAATCGGGTCTTGATTCGCTTGACGCTGCTG”, the results for the binding signal in assay [1] and in assay [2] were 2.91 z-score and 10 z-score, respectively.

In the case of “CCGATTAACATCACATAATCCCCTGATGTTAATCGGGTCTTGATTCGCTTGACGCTGCTG”, the binding signal was 3.86 z-score in assay [1] and 6.27 z-score in assay [2].

In the case of “CCGATTAACATCAGGGAATCACCTGATGTTAATCGGGTCTTGATTCGCTTGACGCTGCTG”, the binding signal in assay [1] came to 2.45 z-score; in assay [2], 10.3 z-score.

With “CCGATTAACATCACCCCGCCCCCTGATGTTAATCGGGTCTTGATTCGCTTGACGCTGCTG”, the binding signal came to 3.91 z-score in assay [1] and 4.16 z-score in assay [2].

The values are drawn from article PMC5700166.
